Values quoted from earlier work as cited in US20190054060A1 (priority 2016, published 2019).

System: influenza
Settings: human, in vivo; cited from earlier work

CC[C@H]1OC(=O)[C@H](C)[C@@H](O[C@H]2C[C@@](C)(OC)[C@@H](O)[C@H](C)O2)[C@H](C)[C@@H](O[C@@H]2O[C@H](C)C[C@H](N(C)C)[C@H]2O)[C@](C)(OC)C[C@@H](C)C(=O)[C@H](C)[C@@H](O)[C@]1(C)O [Clarithromycin, clarithromycin]
effect on symptoms in pediatric influenza patients: hasten the resolution of symptoms
